Screen size: about 39,000 compounds; about 220 (0.56%) showed activity. Some of the results follow.
The molecules below were run on Escherichia coli K-12 BW25113 (assay: relative growth (OD600 normalised to plate interquartile mean) (fraction); higher = less growth inhibition, active = 0.2 or less). Settings: 50 µM; LB; incubation time: overnight (16-24 h).
With `C[C@H](CO)N1C[C@H](C)[C@H](CN(C)Cc2ccccc2)OCCCC[C@H](C)Oc2ccc(NS(=O)(=O)c3ccc(F)cc3)cc2C1=O` the relative growth was inactive: 0.978.
For `Cc1ccc(S(=O)(=O)N(C)C[C@H]2Oc3ccc(NC(=O)CCCN(C)C)cc3C(=O)N([C@@H](C)CO)C[C@H]2C)cc1`, the relative growth was inactive: 1.04.
`C[C@@H]1CN([C@@H](C)CO)S(=O)(=O)c2ccc(C#CC(C)(C)O)cc2O[C@@H]1CN(C)C(=O)C1CCCCC1` was tested, and the relative growth was inactive: 0.983.
For `C[C@H]1CN([C@@H](C)CO)C(=O)Cc2cc(N(C)C)ccc2O[C@@H]1CN(C)S(=O)(=O)c1ccc(F)cc1`, the relative growth was inactive: 1.02.
With `O=C(CCCCCCC(=O)Nc1ccc([C@H]2C[C@@H](CSc3nc(-c4ccccc4)c(-c4ccccc4)o3)O[C@H](c3ccccc3)O2)cc1)NO` the relative growth was inactive: 0.974.
`C[C@H](CO)N1C[C@H](C)[C@H](CN(C)Cc2ccc3c(c2)OCO3)Oc2ncc(Br)cc2C1=O` was tested, and the relative growth was inactive: 1.02.
In the case of `O=C1C[C@]2(c3ccc([N+](=O)[O-])cc3)C(=O)N(CC(F)(F)F)c3cc(CO)ccc3[C@H]2N1CC12CC3CC(CC(C3)C1)C2`, the relative growth is reported as inactive: 0.984.
In the case of `C[C@@H]1CN([C@@H](C)CO)C(=O)Cc2cc(NC(=O)C3CC3)ccc2O[C@@H]1CN(C)C(=O)NC1CCCCC1`, the relative growth is reported as inactive: 0.972.
In the case of `CO[C@@H]1CN(C)C(=O)c2cc(NS(C)(=O)=O)ccc2OC[C@@H](C)N(C(=O)CN(C)C)C[C@H]1C`, the relative growth is reported as inactive: 0.989.
In the case of `C/C=C1\[C@H](O[C@@H]2O[C@H](CO)[C@@H](O)[C@H](O)[C@H]2O)OC=C(C(=O)O)[C@H]1CC(=O)OCCc1ccc(O)cc1`, the relative growth is reported as inactive: 1.02.
For `C[C@H](CO)N1C[C@H](C)[C@H](CN(C)Cc2ccc3c(c2)OCO3)OCCCC[C@H](C)Oc2ccc(NC(=O)C3CCCCC3)cc2C1=O`, the relative growth was inactive: 1.04.
In the case of `CCCCc1nc(-c2ccc(OCCCN(CC)CC)cc2)cn1-c1ccc(Oc2ccc(Cl)cc2)cc1`, the relative growth is reported as inactive: 0.689.
`C[C@@H]1CN([C@H](C)CO)C(=O)Cc2cc(NC(=O)Nc3ccc(C(F)(F)F)cc3)ccc2O[C@H]1CN(C)CC1CCCCC1` was tested, and the relative growth was inactive: 1.02.
In the case of `COc1ccc(COC[C@]23NC(=S)N(C(=O)c4ccccc4)[C@H](c4ccccc4O2)[C@H]3CO[Si](C)(C)C(C)(C)C)cc1`, the relative growth is reported as inactive: 1.
In the case of `COCC#Cc1ccc2c(c1)O[C@@H](CN(C)C(=O)CN(C)C)[C@H](C)CN([C@@H](C)CO)S2(=O)=O`, the relative growth is reported as inactive: 0.954.
With `C[C@H](CO)N1C[C@H](C)[C@H](CN(C)S(C)(=O)=O)Oc2ncc(Br)cc2C1=O` the relative growth was inactive: 1.01.
`O=c1[nH]snc1N1CCCCC1` was tested, and the relative growth was inactive: 0.933.
For `C[C@@H]1CN([C@H](C)CO)C(=O)c2cc(NC(=O)Nc3ccccc3)ccc2O[C@H]1CN(C)C(=O)Nc1cccc2ccccc12`, the relative growth was inactive: 1.03.
In the case of `COc1ccc(S(=O)(=O)Nc2ccc3c(c2)CC(=O)N([C@@H](C)CO)C[C@H](C)[C@H](CN(C)CC2CC2)O3)cc1`, the relative growth is reported as inactive: 0.993.
`C[C@@H]1CN([C@@H](C)CO)C(=O)c2cc(NS(=O)(=O)c3ccc(F)cc3)ccc2O[C@@H](C)CCCCO[C@H]1CN(C)S(=O)(=O)c1ccc(Cl)cc1` was tested, and the relative growth was inactive: 1.04.
For `Fc1ccc(-n2cccc2)c(F)c1`, the relative growth was inactive: 0.979.
`O=C(C[C@@H]1C=C[C@H](NC(=O)C2CC2)[C@H](CO)O1)NCCCN1CCOCC1` was tested, and the relative growth was inactive: 0.97.
In the case of `C[C@H]1CN([C@@H](C)CO)C(=O)c2cccc(NC(=O)Nc3ccc4c(c3)OCO4)c2O[C@H]1CN(C)Cc1ccc(C(=O)Nc2ccccc2N)cc1`, the relative growth is reported as inactive: 0.98.
For `Cc1noc(C)c1NC(=O)N(C)C[C@H]1OCCCC[C@H](C)Oc2ccc(NS(=O)(=O)c3cccs3)cc2C(=O)N([C@H](C)CO)C[C@@H]1C`, the relative growth was inactive: 0.998.
`C[C@H](CO)N1C[C@H](C)[C@@H](CN(C)Cc2ccc(C(F)(F)F)cc2)Oc2ccc(NC(=O)C3CCCCC3)cc2CC1=O` was tested, and the relative growth was inactive: 1.03.
For `Cc1noc(C)c1S(=O)(=O)N(C)C[C@@H]1Oc2ccc(NC(=O)Cc3ccccc3)cc2CC(=O)N([C@H](C)CO)C[C@@H]1C`, the relative growth was inactive: 0.992.
`C[C@H](CO)N1C[C@H](C)[C@H](CN(C)S(=O)(=O)c2cn(C)cn2)OCCCC[C@H](C)Oc2ccc(NC(=O)Nc3cccc4ccccc34)cc2C1=O` was tested, and the relative growth was inactive: 0.994.
For `CN(C)CC(=O)N1CCO[C@]2(COCCN(c3cncnc3)C2)C1`, the relative growth was inactive: 0.989.
For `Cc1noc(C)c1NC(=O)N(C)C[C@@H]1Oc2c(NC(=O)c3ccncc3)cccc2C(=O)N([C@@H](C)CO)C[C@H]1C`, the relative growth was inactive: 1.01.
For `CN1C(=O)c2cc(NS(=O)(=O)c3ccc(F)cc3)ccc2OC[C@H]2O[C@H](CC(=O)NCC(F)(F)F)CC[C@@H]21`, the relative growth was inactive: 0.963.
`C[C@@H]1CN([C@@H](C)CO)C(=O)c2cc(NC(=O)Nc3ccc(F)cc3)ccc2O[C@@H](C)CCCCO[C@H]1CN(C)C(=O)CCCN(C)C` was tested, and the relative growth was inactive: 0.998.
In the case of `C[C@@H]1CN([C@@H](C)CO)C(=O)c2cc(NS(=O)(=O)c3ccc(F)cc3)ccc2O[C@@H](C)CCCCO[C@H]1CN(C)C(=O)CCC(F)(F)F`, the relative growth is reported as inactive: 1.
With `COc1ccc(NC(=O)Nc2cccc3c2O[C@@H](CN(C)C(=O)Nc2ccc(C(F)(F)F)cc2)[C@H](C)CN([C@H](C)CO)C3=O)cc1` the relative growth was inactive: 0.796.
With `N[C@@H]1CCN(O)C1=O` the relative growth was inactive: 1.
For `COc1ccc(S(=O)(=O)N2CCC(N3C[C@H]4CC[C@@H](N)[C@@H]4C3)CC2)cc1`, the relative growth was inactive: 0.978.
For `NC(=O)N1CCc2n[nH]c(C(=O)N3CCOCC3)c2C1`, the relative growth was inactive: 0.993.
With `COc1ccc(S(=O)(=O)Nc2cccc3c2O[C@H](CN(C)Cc2ccc(-c4ccccc4)cc2)[C@H](C)CN([C@@H](C)CO)C3=O)cc1` the relative growth was inactive: 1.
For `COc1ccc(NC(=O)Nc2ccc3c(c2)C(=O)N([C@H](C)CO)C[C@@H](C)[C@H](CN(C)S(=O)(=O)c2cccs2)OCCCC[C@H](C)O3)cc1`, the relative growth was inactive: 1.02.

From the supplement of paper PMC9446081
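Note: static incubation at 37 °C against the wild-type strain, values averaged over two biological replicates.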
